In article PMC4336329 (PLoS ONE, 2015):
Screen size: about 310,000 compounds; about 14,000 (4.5%) showed an effect of 50% or more. The effect is printed as a negative number. The list shows a part of the results.

Biological target: human ether-à-go-go-related gene (hERG) potassium channel (human, UniProt Q12809)
Experiment: primary screen, population patch clamp on CHO cells stably expressing hERG
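Further: peak tail current of the secondary pulse compared with the same well before compound.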

Sequence of human ether-à-go-go-related gene (hERG) potassium channel (Q12809 whole entry, looked up): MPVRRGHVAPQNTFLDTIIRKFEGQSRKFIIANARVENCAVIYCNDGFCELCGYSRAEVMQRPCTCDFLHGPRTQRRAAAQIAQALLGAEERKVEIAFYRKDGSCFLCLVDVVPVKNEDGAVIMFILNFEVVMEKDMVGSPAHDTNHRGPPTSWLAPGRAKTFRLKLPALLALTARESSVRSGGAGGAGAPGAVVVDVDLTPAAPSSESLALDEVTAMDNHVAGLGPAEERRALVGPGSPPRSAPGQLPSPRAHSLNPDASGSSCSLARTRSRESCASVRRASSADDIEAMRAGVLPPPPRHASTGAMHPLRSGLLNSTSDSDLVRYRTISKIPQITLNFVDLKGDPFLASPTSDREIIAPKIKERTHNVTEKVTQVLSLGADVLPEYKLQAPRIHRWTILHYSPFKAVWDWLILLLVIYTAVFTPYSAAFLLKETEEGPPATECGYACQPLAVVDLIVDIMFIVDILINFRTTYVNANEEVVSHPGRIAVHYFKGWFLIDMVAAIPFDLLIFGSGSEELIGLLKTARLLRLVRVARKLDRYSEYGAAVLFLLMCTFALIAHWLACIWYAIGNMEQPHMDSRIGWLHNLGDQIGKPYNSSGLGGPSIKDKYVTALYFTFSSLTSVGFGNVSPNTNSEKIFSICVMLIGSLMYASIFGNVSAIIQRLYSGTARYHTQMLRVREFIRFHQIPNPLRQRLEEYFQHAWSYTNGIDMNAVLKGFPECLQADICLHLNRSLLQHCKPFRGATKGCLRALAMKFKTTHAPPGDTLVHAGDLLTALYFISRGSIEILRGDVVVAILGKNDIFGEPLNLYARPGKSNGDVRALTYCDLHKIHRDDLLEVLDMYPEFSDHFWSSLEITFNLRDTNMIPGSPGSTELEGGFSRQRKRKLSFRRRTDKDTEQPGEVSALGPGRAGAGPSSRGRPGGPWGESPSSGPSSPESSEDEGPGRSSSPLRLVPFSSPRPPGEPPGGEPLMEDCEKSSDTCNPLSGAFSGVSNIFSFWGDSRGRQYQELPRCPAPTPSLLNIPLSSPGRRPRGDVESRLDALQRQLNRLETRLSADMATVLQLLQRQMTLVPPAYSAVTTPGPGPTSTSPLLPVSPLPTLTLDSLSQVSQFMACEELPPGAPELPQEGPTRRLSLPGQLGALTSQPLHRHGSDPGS

Row | Compound | hERG current change (%, negative = inhibition) at 10uM [%]
1 | CC(=O)N1c2ccccc2C2CCCC[C@@H]21 (stereo partly shown) | 12.4
2 | Cc1ccc(C(=O)COC(=O)CCC(=O)Nc2ccccc2Cl)cc1[N+](=O)[O-] | 5.84
3 | O=C(CSc1nc2nn(-c3ccccc3)c(=O)c-2c2n1CCCCC2)c1ccc(O)c(O)c1 | -17.1
4 | CSCCC(NC(=O)c1ccc(=O)n(C)n1)c1nc2ccccc2[nH]1 (stereo not shown) | -7.3
5 | CCN1CCN(c2cc(N3CCN(C(=O)c4ccco4)CC3)c3c4c(onc24)-c2ccccc2C3=O)CC1 | -32.6
6 | CC(=O)NC1=NN(C(C)=O)C(c2ccc(F)cc2)S1 (stereo not shown) | 7.04
7 | Cc1ccc(S(=O)(=O)NNC(=O)c2ccoc2C)cc1 | -70.6
8 | CCOc1ccccc1-n1c(SCC(N)=O)nnc1-c1ccccc1 | -3.42
9 | CCOC(=O)C1=C(C)NC(=S)NC1c1ccc(OCC(=O)N2CCCCC2)cc1 (stereo not shown) | 20.7
10 | c1ccc(COc2ccc(OCCOCCn3cncn3)cc2)cc1 | -23.4
11 | CC(C)(C)C1CCC(=NNC(=O)CN(c2ccccc2)S(=O)(=O)c2ccccc2[N+](=O)[O-])CC1 (stereo not shown) | 6.69
12 | CCOc1ccc2oc(C(=O)NCc3nc4ccccc4[nH]3)c(C)c2c1 | 10.3
13 | CCCc1sc(N)nc1-c1ccc(C)cc1 | -5.87
14 | Cc1cnc(C(=O)OCC(=O)Nc2ccc(Br)cc2F)cn1 | 1.5
15 | C/C(=N\Nc1ccccc1)c1cccc(N)c1 | 14.6
16 | C=CCn1c(SCC(=O)Nc2ccccc2C)nnc1-c1ccncc1 | -5.51
17 | CNS(=O)(=O)c1ccc(NC(=O)c2ccoc2C)cc1 | -0.00162
18 | Cc1noc(NS(=O)(=O)c2ccc(NC(=O)CSc3nc4c(cc3C#N)CCCCC4)cc2)c1C | -10.8
19 | CC(C)Oc1cccc(C(=O)NC(=S)Nc2cccc(NC(=O)c3ccccc3Cl)c2)c1 | -11.9
20 | COC(=O)c1ccc(Nc2nc(C)nc3c2nnn3Cc2ccccc2)cc1 | 20.1
21 | Cc1cc(OCCN2CCOCC2)ccc1Cl | 8.94
22 | Cc1cc(=O)n2[nH]c(-c3sccc3-n3c(C)ccc3C)cc2n1 | 1.24

Row | Compound | hERG current change (%, negative = inhibition) at 10uM [%]
23 | COc1ccc(-c2cc(C(=O)N3CCN(c4ccccc4)CC3)no2)cc1OC | 20.9
24 | COc1ccc(/C(C)=N/NC(=O)c2nc(C)cc(C)n2)cc1 | -6.63
25 | Cc1nn(CC(=O)Nc2ccc3c(c2)nc2n3CCOC2)c(=O)c2ccccc12 | 6.7
26 | C/C(=N\NC(=O)c1cccc(N/N=C(\C)c2ccncc2)c1)c1ccncc1 | -3.44
27 | COc1ccc(/C=C(/CC(=O)Nc2ccccc2)c2nc3ccccc3s2)cc1 | -1.37
28 | CCn1nnc(-c2ccccc2NC(=O)c2ccc(-n3cnnn3)cc2)n1 | -21.9
29 | O=C(Nc1nccs1)c1c(O)c2c(n(Cc3ccco3)c1=O)CCCC2 | -6.96
30 | COc1ccc(OC)c(S(=O)(=O)N2CCC(C(=O)NCc3ccc4c(c3)OCO4)CC2)c1 | -3.84
31 | Fc1ccc(Cn2nnc(-c3ccc(CN4CCOCC4)cc3)n2)cc1 | -27.1
32 | COc1ccc(OCCCC(=O)NCCc2nc3ccccc3[nH]2)cc1 | -1.29
33 | Cc1nc(Nc2ccccc2F)c2nnn(Cc3ccccc3Cl)c2n1 | 19.2
34 | COc1cc(C(=O)NNC(=S)Nc2ccc(S(N)(=O)=O)cc2)cc(OC)c1OC | 20.7
35 | COc1ccc(C2=NS(=O)(=O)N(C)C(C(=O)NCc3ccco3)=C2)cc1OC | -48.9
36 | CCn1nnnc1SCC(=O)N(C1CCCCC1)C1CCCCC1 | -15.6
37 | CC(NC(=O)/C(C#N)=C/c1cn(-c2ccccc2)nc1-c1ccc(F)cc1)c1ccccc1 (stereo not shown) | 4.81
38 | CCOC(=O)C1=C(C)NC(C)=C(C(=O)OCC)C1c1cccc(C)n1 | 0.35
39 | COc1ccc(C)cc1-n1nnnc1SCC(=O)Nc1cc(C)on1 | -7.77
40 | O=C(CNC(=O)C1COc2ccccc2O1)N/N=C\c1ccc(Cl)cc1 (stereo not shown) | -69.4
41 | NC(=O)c1sc2nc3c(c(-c4cccnc4)c2c1N)CCC3 | 3.91
42 | O=C(NNC(=O)c1ccccc1Br)c1cccc(Cl)c1 | -7.94
43 | Clc1ccc2ncc(-c3nnnn3-c3ccccc3)c(-c3ccccc3)c2c1 | 9.63
44 | O=C1c2ccccc2C(=O)N1c1cccc2cccnc12 | 14

Row | Compound | hERG current change (%, negative = inhibition) at 10uM [%]
45 | CC(=O)O.Cc1ccc(C2C(C(=O)c3cccs3)=C(O)C(=O)N2c2ccc(S(N)(=O)=O)cc2)cc1 (stereo not shown) | 16.5
46 | Cn1ncc(Cl)c1C(=O)Nc1ccc2c(c1)CCC2 | 15.5
47 | COc1ccc(N2CC(C(=O)Nc3ncccc3C)CC2=O)cc1 (stereo not shown) | -2.08
48 | CCOc1ccc(CN2CCN(Cc3cnn(CC)c3C)CC2CCO)cc1 (stereo not shown) | -67.8
49 | N#CC(=C1SC=CS1)c1nc(-c2ccccc2)cs1 | 9.47
50 | CCOc1cc(CNCCc2c[nH]c3ccccc23)cc(Cl)c1OC.Cl | 1.35
51 | Cc1ccc(/C=N\NC(=O)Cn2c(C)nc3ccccc32)o1 | -0.00632
52 | Cc1cc(C)nc(NS(=O)(=O)c2ccc(NC(=O)CCCN3C(=O)c4ccccc4C3=O)cc2)n1 | 2.6
53 | Cc1nn(CCCC(=O)N2CCc3ccccc3C2)c(=O)c2cc3sccc3n12 | -75.5
54 | COc1ccc(NS(=O)(=O)c2ccc3c(c2)NC(=O)CC(=O)N3)cc1OC | 16.1
55 | CC(=O)Nc1ccc(C(=O)COC(=O)C2CCCCC2)c(F)c1 | 10.6
56 | COc1ccc2cc3cc(C(=O)N4CCCC(C)C4)oc3nc2c1 (stereo not shown) | 8.67
57 | COc1cccc(-c2sc3ccc(OC)cc3c2-c2cc(F)cc(OC)c2)c1 | 15
58 | O=C(Nn1cnc2ccccc2c1=O)c1ccc(F)cc1Cl | 10.9
59 | Cc1cc(C)n2nc(SCc3nnc(SCc4ccccc4)s3)nc2n1 | -28.6
60 | O=C1N(Cc2cccc(Cl)c2)C[C@@H]2C[C@@H](c3cccn3-c3nccs3)N3CCC[C@@]123 | -68
61 | CN(C)/C=C1/Nc2ccccc2C1=O | 10.7
62 | CC1CCN(C2=C(NS(=O)(=O)c3ccc(Br)cc3)C(=O)c3ccccc3C2=O)CC1 | -0.513
63 | Nc1n[nH]c(N)c1N=Nc1ccccc1F | 13
64 | NC(=O)[C@@H]1CCCN1C(=O)c1ccc2nc(Cc3cccc(Cl)c3)oc2c1 | -5.99
65 | CCOc1ccc(-c2c(C)n([O-])c3c([n+]2=O)CCCC3)cc1 | -1.2
66 | O=C(CSc1nccn(-c2ccc(Br)cc2)c1=O)Nc1ccccc1F | 11.1

Row | Compound | hERG current change (%, negative = inhibition) at 10uM [%]
67 | N#C/C(=C\c1cc([N+](=O)[O-])c(N2CCCCC2)cc1N1CCCCC1)c1nn(-c2ccccc2)c(N)c1C#N | 6.77
68 | O=C1CC(C(=O)NCc2ccccc2)N=C(N2CCCCC2)N1 (stereo not shown) | 4.85
69 | CN1CCN(c2ccc(S(=O)(=O)N3CCCCC3)cn2)CC1 | -6.33
70 | O=C(O)CCc1ccc(-c2ccccc2)n1CC(=O)O | 12.4
71 | Cc1ccccc1-n1c(O)c(C(c2ccncc2)c2c(O)n(-c3ccccc3C)c(=O)[nH]c2=O)c(=O)[nH]c1=O | 7.64
72 | CC/C(=N\NC(=O)c1ccoc1C)c1ccc(C)o1 | -14.3
73 | COc1cc2c(cc1OC)CN(C(=O)c1ccc(S(=O)(=O)N3CCCC3)cc1)CC2 | 8.19
74 | Cc1ccc(C)c(NC(=S)NCC(c2ccccc2)N(C)C)c1 (stereo not shown) | -17.6
75 | COc1ccccc1CN1CCCCC1C(=O)O (stereo not shown) | 9.48
76 | COc1ccc(/C=C(\NC(=O)c2ccc([N+](=O)[O-])cc2)C(=O)NCCCn2ccnc2)cc1 | -69.4
77 | N#CCSc1nc2c(c(=O)n1Cc1ccco1)C1(CCCC1)Cc1ccccc1-2 | 13.4
78 | Cc1nc(CNC(=O)c2cc(COc3ccc(F)cc3Cl)on2)cs1 | -5.88
79 | COc1cc(/C=C(\C#N)C(=O)c2ccc(O)c(O)c2)cc(I)c1O | 8.34
80 | Cl.OC(COc1cccc(OCC(O)CN2CCOCC2)c1)CN1CCOCC1 (stereo not shown) | 7.41
81 | O=C1[C@@H]2Cc3c([nH]c4ccccc34)CN2C(=O)CN1CCCO | 16.7
82 | Clc1ccc(C(c2ccccc2)c2ncc[nH]2)cc1 (stereo not shown) | 9.27
83 | COc1ccc(CS(=O)c2nc(C)cc(C)c2S(C)(=O)=O)cc1 (stereo not shown) | 22.8
84 | Cn1c(=O)c2c(nc(CN3CCN(C(=O)c4ccco4)CC3)n2CCc2ccccc2)n(C)c1=O | -66.3
85 | CCOC(=O)c1ccc(N2NC(=O)/C(=C/c3ccc(OC(=O)c4ccco4)c(OC)c3)C2=O)cc1 | 14.3
